# Results as given in the supplement of paper PMC8728848.
# This is one part of the list.
# Columns and labels:
# Assay in all cases: glycan array binding signal (z-score within array); higher = stronger binding
# Details in all cases: glycan notation: IUPAC condensed, linker removed
# [1] = molecular target: Gal6S(b1-4)Glc6S
# Procedure, shortened: (§1)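 Glycan array data were curated from 3228 arrays in the Consortium for Functional Glycomics database and kept only where the protein sequence was available. Glycan names were converted to IUPAC-condensed notation, and columns mapping to the same glycan were averaged. The binding signal is a within-array Z-score, averaged across arrays of the same protein sequence at different concentrations or buffers and across linkers. Negative Z-scores can be read as non-binding.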
# [2] = molecular target: Gal6S(b1-4)GlcNAc
# Procedure, shortened: as §1
# [3] = molecular target: Gal6S(b1-4)GlcNAc6S
# Procedure, shortened: as §1
# [4] = molecular target: GalNAc(a1-3)Gal
# Procedure, shortened: as §1
# [5] = molecular target: GalNAc(a1-3)GalNAc
# Procedure, shortened: as §1
# [6] = molecular target: GalNAc(a1-3)GalNAc(a1-3)Gal(a1-4)Gal(b1-4)GlcNAc
# Procedure, shortened: as §1
# [7] = molecular target: GalNAc(a1-3)GalNAc(b1-3)Gal(a1-4)Gal(b1-4)Glc
# Procedure, shortened: as §1
# [8] = molecular target: GalNAc(b1-3)Gal
# Procedure, shortened: as §1
# [9] = molecular target: GalNAc(b1-3)Gal(a1-4)Gal(b1-4)GlcNAc
# Procedure, shortened: as §1
# [10] = molecular target: GalNAc(b1-3)Gal(a1-4)Gal(b1-4)GlcNAc(b1-3)Gal(b1-4)Glc
# Procedure, shortened: as §1
# [11] = molecular target: GalNAc(b1-3)Gal(a1-6)Gal(b1-4)Glc
# Procedure, shortened: as §1
# [12] = molecular target: GalNAc(b1-3)GalNAc
# Procedure, shortened: as §1
# [13] = molecular target: GalNAc(b1-3)GlcNAc
# Procedure, shortened: as §1
# [14] = molecular target: GalNAc(b1-4)Gal(b1-4)Glc
# Procedure, shortened: as §1
# [15] = molecular target: GalNAc(b1-4)GlcNAc
# Procedure, shortened: as §1
# [16] = molecular target: GalNAc(b1-4)GlcNAc(b1-2)Man
# Procedure, shortened: as §1
# [17] = molecular target: GalNAc(b1-4)GlcNAc(b1-2)Man(a1-3)[GalNAc(b1-4)GlcNAc(b1-2)Man(a1-6)]Man(b1-4)GlcNAc(b1-4)GlcNAc
# Procedure, shortened: as §1
# [18] = molecular target: GalNAc(b1-4)GlcNAc(b1-3)GalNAc(b1-4)GlcNAc
# Procedure, shortened: as §1
# [19] = molecular target: GalNAc(b1-4)GlcNAc6S
# Procedure, shortened: as §1
# [20] = molecular target: GalNAc(b1-6)GalNAc
# Procedure, shortened: as §1
# [21] = molecular target: GalNAc3S(b1-4)GlcNAc
# Procedure, shortened: as §1
# [22] = molecular target: GalNAc3S(b1-4)GlcNAc3S
# Procedure, shortened: as §1
# [23] = molecular target: GalNAc3S(b1-4)[Fuc(a1-3)]GlcNAc
# Procedure, shortened: as §1
# [24] = molecular target: GalNAc4S6S(b1-4)GlcNAc
# Procedure, shortened: as §1
# [25] = molecular target: GalNAc6S(b1-4)GlcNAc
# Procedure, shortened: as §1
# [26] = molecular target: Glc(a1-4)Glc
# Procedure, shortened: as §1
# [27] = molecular target: Glc(a1-4)Glc(a1-4)Glc(a1-4)Glc
# Procedure, shortened: as §1
# [28] = molecular target: Glc(a1-6)Glc(a1-6)Glc
# Procedure, shortened: as §1
# [29] = molecular target: Glc(a1-6)Glc(a1-6)Glc(a1-6)Glc
# Procedure, shortened: as §1
# [30] = molecular target: Glc(b1-4)Glc
# Procedure, shortened: as §1
# [31] = molecular target: Glc(b1-6)Glc
# Procedure, shortened: as §1
# [32] = molecular target: GlcA(b1-3)Gal
# Procedure, shortened: as §1
# [33] = molecular target: GlcA(b1-3)GlcNAc
# Procedure, shortened: as §1
# [34] = molecular target: GlcA(b1-6)Gal
# Procedure, shortened: as §1
# [35] = molecular target: GlcA3S(b1-3)Gal(b1-4)GlcNAc(b1-2)Man
# Procedure, shortened: as §1
# [36] = molecular target: GlcA3S(b1-3)Gal(b1-4)GlcNAc(b1-3)Gal(b1-4)Glc
# Procedure, shortened: as §1
# [37] = molecular target: GlcNAc(a1-3)Gal(b1-4)GlcNAc
# Procedure, shortened: as §1
# [38] = molecular target: GlcNAc(a1-4)Gal(b1-3)GlcNAc
# Procedure, shortened: as §1
# [39] = molecular target: GlcNAc(a1-4)Gal(b1-4)GalNAc
# Procedure, shortened: as §1
# [40] = molecular target: GlcNAc(a1-4)Gal(b1-4)GlcNAc
# Procedure, shortened: as §1
# [41] = molecular target: GlcNAc(a1-4)Gal(b1-4)GlcNAc(b1-3)Gal(b1-4)Glc
# Procedure, shortened: as §1
# [42] = molecular target: GlcNAc(a1-4)Gal(b1-4)GlcNAc(b1-3)Gal(b1-4)GlcNAc
# Procedure, shortened: as §1
# [43] = molecular target: GlcNAc(a1-4)Gal(b1-4)GlcNAc(b1-3)Gal(b1-4)GlcNAc(b1-3)Gal(b1-4)GlcNAc
# Procedure, shortened: as §1
# [44] = molecular target: GlcNAc(a1-4)Gal(b1-4)GlcNAc(b1-3)Gal(b1-4)[Fuc(a1-3)]GlcNAc(b1-3)Gal(b1-4)[Fuc(a1-3)]GlcNAc
# Procedure, shortened: as §1
# [45] = molecular target: GlcNAc(a1-6)Gal(b1-4)GlcNAc
# Procedure, shortened: as §1
binder,measurement,setting,value
"CBM13 2a (Mycobacterium tuberculosum), P64849 (protein) DGPVQLKSRLGDVCLDAPSGSWFSPLVINPCNGTDFQRWNLTDDRQVESVAFPGECVNIGNALWARLQPCVNWISQHWTVQPDGLVKSDLDACLTVLGGPDPGTWVSTRWCDPNAPDQQWDSVPLEHHHHHH",glycan array binding signal (z-score),[1],-0.116
same,glycan array binding signal (z-score),[2],-0.173
same,glycan array binding signal (z-score),[3],-0.288
same,glycan array binding signal (z-score),[4],-0.304
same,glycan array binding signal (z-score),[5],-0.31
same,glycan array binding signal (z-score),[6],-0.375
same,glycan array binding signal (z-score),[7],-0.269
same,glycan array binding signal (z-score),[8],-0.289
same,glycan array binding signal (z-score),[9],-0.272
same,glycan array binding signal (z-score),[10],-0.325
same,glycan array binding signal (z-score),[11],-0.149
same,glycan array binding signal (z-score),[12],-0.167
same,glycan array binding signal (z-score),[13],-0.328
same,glycan array binding signal (z-score),[14],-0.069
same,glycan array binding signal (z-score),[15],-0.323
same,glycan array binding signal (z-score),[16],-0.419
same,glycan array binding signal (z-score),[17],0.805
same,glycan array binding signal (z-score),[18],-0.341
same,glycan array binding signal (z-score),[19],-0.357
same,glycan array binding signal (z-score),[20],-0.3
same,glycan array binding signal (z-score),[21],-0.336
same,glycan array binding signal (z-score),[22],-0.049
same,glycan array binding signal (z-score),[23],-0.251
same,glycan array binding signal (z-score),[24],-0.081
same,glycan array binding signal (z-score),[25],-0.099
same,glycan array binding signal (z-score),[26],-0.098
same,glycan array binding signal (z-score),[27],-0.131
same,glycan array binding signal (z-score),[28],-0.174
same,glycan array binding signal (z-score),[29],0.041
same,glycan array binding signal (z-score),[30],-0.021
same,glycan array binding signal (z-score),[31],-0.057
same,glycan array binding signal (z-score),[32],-0.204
same,glycan array binding signal (z-score),[33],-0.329
same,glycan array binding signal (z-score),[34],0
same,glycan array binding signal (z-score),[35],-0.242
same,glycan array binding signal (z-score),[36],-0.122
same,glycan array binding signal (z-score),[37],-0.365
same,glycan array binding signal (z-score),[38],-0.306
same,glycan array binding signal (z-score),[39],-0.227
same,glycan array binding signal (z-score),[40],-0.181
same,glycan array binding signal (z-score),[41],-0.311
same,glycan array binding signal (z-score),[42],-0.295
same,glycan array binding signal (z-score),[43],-0.179
same,glycan array binding signal (z-score),[44],0.043
same,glycan array binding signal (z-score),[45],-0.319
